Test results: the supplement of paper PMC9151546
Most values come without repeats; read them as rough.

Tests used:
CHO-K1 [1] = assay: relative survival (nuclei to bead ratio vs DMSO control) (% of vehicle control); higher = more surviving cells
Description: (§1)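 Flow-cytometric in vitro micronucleus assay (Litron MicroFlow) in CHO-K1 cells in 96-well plates, 19 concentrations (4.5-200 µM, n=1 per concentration). Without S9, cells were exposed for 24 h and sampled at 48 h. With Aroclor 1254-induced rat liver S9, cells were exposed for 3-4 h and sampled at 27-28 h. Read-outs are %MN and %hypodiploid nuclei relative to nucleated events, and relative survival as the nuclei-to-bead ratio versus the 1% DMSO vehicle control (x100).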

CHO-K1 [2] = assay: hypodiploid nuclei frequency (% of nucleated events); higher = more hypodiploid events (aneugenic)
Description: as §1

CHO-K1 [3] = assay: micronucleus frequency (% of nucleated events); higher = more micronuclei (genotoxic)
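For hypodiploid nuclei frequency (% of nucleated events) in this document: hypodiploid nuclei gated on a flow cytometer with 488 nm excitation after SYTOX Green staining, cultures at 37 °C, positive controls vinblastine without S9 and cyclophosphamide with S9.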
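For micronucleus frequency (% of nucleated events) in this document: cells lysed with nuclei stained by SYTOX Green, then micronucleus-gated events counted against nucleated events by flow cytometry with 488 nm excitation.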
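For relative survival (nuclei to bead ratio vs DMSO control) in this document: Lysed-cell nuclei stained with SYTOX Green and counted against counting beads by flow cytometry at 488 nm excitation, with vinblastine (no S9) and cyclophosphamide (plus S9) as positive controls.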

C[C@]12CCC(=O)C=C1CC[C@@H]1[C@@H]2CC[C@]2(C)C(=O)CC[C@@H]12 [4-Androstene-3,17-dione]
Settings	hypodiploid nuclei frequency, CHO-K1 [2] [%]	micronucleus frequency, CHO-K1 [3] [%]	relative survival, CHO-K1 [1]
concentration: 4.5 (µM), S9 metabolic activation: with S9, exposure time: 3-4 hours	0.3	2.3	82.1
concentration: 4.5 (µM), S9 metabolic activation: without S9, exposure time: 24 hours	1.06	1.96	89.4
concentration: 5.63 (µM), S9 metabolic activation: with S9, exposure time: 3-4 hours	0.42	1.51	61
concentration: 5.63 (µM), S9 metabolic activation: without S9, exposure time: 24 hours	0.94	2	95.7
concentration: 7.04 (µM), S9 metabolic activation: with S9, exposure time: 3-4 hours	0.42	2.08	84.7
concentration: 7.04 (µM), S9 metabolic activation: without S9, exposure time: 24 hours	1.1	2.34	98.5
concentration: 8.8 (µM), S9 metabolic activation: with S9, exposure time: 3-4 hours	0.22	1.72	71.1
concentration: 8.8 (µM), S9 metabolic activation: without S9, exposure time: 24 hours	1.02	1.38	104
concentration: 11 (µM), S9 metabolic activation: with S9, exposure time: 3-4 hours	0.46	1.54	81.7
concentration: 11 (µM), S9 metabolic activation: without S9, exposure time: 24 hours	0.96	1.26	85.2
concentration: 13.7 (µM), S9 metabolic activation: with S9, exposure time: 3-4 hours	0.46	1.78	63.9
concentration: 13.7 (µM), S9 metabolic activation: without S9, exposure time: 24 hours	1.06	1.58	94.8
concentration: 17.2 (µM), S9 metabolic activation: with S9, exposure time: 3-4 hours	0.26	1.88	72.9
concentration: 17.2 (µM), S9 metabolic activation: without S9, exposure time: 24 hours	1.34	2.3	117
concentration: 21.5 (µM), S9 metabolic activation: with S9, exposure time: 3-4 hours	0.36	1.56	106
concentration: 21.5 (µM), S9 metabolic activation: without S9, exposure time: 24 hours	1.12	2.14	92.6
concentration: 26.8 (µM), S9 metabolic activation: with S9, exposure time: 3-4 hours	0.38	2.34	76.8
concentration: 26.8 (µM), S9 metabolic activation: without S9, exposure time: 24 hours	1.66	1.58	70.2
concentration: 33.6 (µM), S9 metabolic activation: with S9, exposure time: 3-4 hours	0.3	1.34	65.6
concentration: 33.6 (µM), S9 metabolic activation: without S9, exposure time: 24 hours	1.72	1.88	75.4
concentration: 41.9 (µM), S9 metabolic activation: with S9, exposure time: 3-4 hours	0.3	2.52	76.8
concentration: 41.9 (µM), S9 metabolic activation: without S9, exposure time: 24 hours	1.5	1.92	75.1
concentration: 52.4 (µM), S9 metabolic activation: with S9, exposure time: 3-4 hours	0.44	1.92	63.6
concentration: 52.4 (µM), S9 metabolic activation: without S9, exposure time: 24 hours	1.5	1.7	79.5
concentration: 65.5 (µM), S9 metabolic activation: with S9, exposure time: 3-4 hours	0.7	1.54	79.8
concentration: 65.5 (µM), S9 metabolic activation: without S9, exposure time: 24 hours	1.96	1.94	64
concentration: 81.9 (µM), S9 metabolic activation: with S9, exposure time: 3-4 hours	0.5	2.52	60.5
concentration: 81.9 (µM), S9 metabolic activation: without S9, exposure time: 24 hours	2.02	1.92	62.4
concentration: 102 (µM), S9 metabolic activation: with S9, exposure time: 3-4 hours	0.6	1.82	65.3
concentration: 102 (µM), S9 metabolic activation: without S9, exposure time: 24 hours	2.04	2.06	66.3
concentration: 128 (µM), S9 metabolic activation: with S9, exposure time: 3-4 hours	0.58	2.08	72.1
concentration: 128 (µM), S9 metabolic activation: without S9, exposure time: 24 hours	2.1	2.42	57.5
concentration: 160 (µM), S9 metabolic activation: with S9, exposure time: 3-4 hours	0.16	1.88	79
concentration: 160 (µM), S9 metabolic activation: without S9, exposure time: 24 hours	1.54	1.24	49.8
concentration: 200 (µM), S9 metabolic activation: with S9, exposure time: 3-4 hours	0.48	2.35	59.7
concentration: 200 (µM), S9 metabolic activation: without S9, exposure time: 24 hours	1.72	1.98	41.9

O=C1CCCO1 [4-Butyrolactone]
Settings	hypodiploid nuclei frequency, CHO-K1 [2] [%]	micronucleus frequency, CHO-K1 [3] [%]	relative survival, CHO-K1 [1]
concentration: 4.46 (µM), S9 metabolic activation: with S9, exposure time: 3-4 hours	0.28	1.04	109
concentration: 4.46 (µM), S9 metabolic activation: without S9, exposure time: 24 hours	1.26	1.02	79.8
concentration: 5.57 (µM), S9 metabolic activation: with S9, exposure time: 3-4 hours	0.26	1.04	82.8
concentration: 5.57 (µM), S9 metabolic activation: without S9, exposure time: 24 hours	0.78	1.02	105
concentration: 6.97 (µM), S9 metabolic activation: with S9, exposure time: 3-4 hours	0.26	1.42	101
concentration: 6.97 (µM), S9 metabolic activation: without S9, exposure time: 24 hours	0.44	1.26	98.6
concentration: 8.71 (µM), S9 metabolic activation: with S9, exposure time: 3-4 hours	0.32	1.22	92.7
concentration: 8.71 (µM), S9 metabolic activation: without S9, exposure time: 24 hours	1.26	0.86	96.2
concentration: 10.9 (µM), S9 metabolic activation: with S9, exposure time: 3-4 hours	0.16	1.56	86.4
concentration: 10.9 (µM), S9 metabolic activation: without S9, exposure time: 24 hours	0.64	1.08	101
concentration: 13.6 (µM), S9 metabolic activation: with S9, exposure time: 3-4 hours	0.24	2.72	74.7
concentration: 13.6 (µM), S9 metabolic activation: without S9, exposure time: 24 hours	0.94	1.46	85.3
concentration: 17 (µM), S9 metabolic activation: with S9, exposure time: 3-4 hours	0.14	1.04	89.6
concentration: 17 (µM), S9 metabolic activation: without S9, exposure time: 24 hours	0.6	1.58	86.9
concentration: 21.3 (µM), S9 metabolic activation: with S9, exposure time: 3-4 hours	0.14	0.76	83.5
concentration: 21.3 (µM), S9 metabolic activation: without S9, exposure time: 24 hours	0.8	1.46	101
concentration: 26.6 (µM), S9 metabolic activation: with S9, exposure time: 3-4 hours	0.24	1.06	121
concentration: 26.6 (µM), S9 metabolic activation: without S9, exposure time: 24 hours	0.66	1.1	102
concentration: 33.2 (µM), S9 metabolic activation: with S9, exposure time: 3-4 hours	0.18	1	97.8
concentration: 33.2 (µM), S9 metabolic activation: without S9, exposure time: 24 hours	0.64	1.48	108
concentration: 41.5 (µM), S9 metabolic activation: with S9, exposure time: 3-4 hours	0.22	1	94.6
concentration: 41.5 (µM), S9 metabolic activation: without S9, exposure time: 24 hours	1.14	1.84	92
concentration: 51.9 (µM), S9 metabolic activation: with S9, exposure time: 3-4 hours	0.14	1.2	80.7
concentration: 51.9 (µM), S9 metabolic activation: without S9, exposure time: 24 hours	0.86	1.46	81.4
concentration: 64.9 (µM), S9 metabolic activation: with S9, exposure time: 3-4 hours	0.36	1.04	86
concentration: 64.9 (µM), S9 metabolic activation: without S9, exposure time: 24 hours	1.04	1.76	85.6
concentration: 81.1 (µM), S9 metabolic activation: with S9, exposure time: 3-4 hours	0.22	0.94	78.9
concentration: 81.1 (µM), S9 metabolic activation: without S9, exposure time: 24 hours	0.88	1.52	98.2
concentration: 101 (µM), S9 metabolic activation: with S9, exposure time: 3-4 hours	0.22	0.9	84.8
concentration: 101 (µM), S9 metabolic activation: without S9, exposure time: 24 hours	0.84	1.66	88.5
concentration: 127 (µM), S9 metabolic activation: with S9, exposure time: 3-4 hours	0.12	1	101
concentration: 127 (µM), S9 metabolic activation: without S9, exposure time: 24 hours	0.74	2.04	93.8
concentration: 158 (µM), S9 metabolic activation: with S9, exposure time: 3-4 hours	0.22	1.44	83.2
concentration: 158 (µM), S9 metabolic activation: without S9, exposure time: 24 hours	1.26	2.18	74.7
concentration: 198 (µM), S9 metabolic activation: with S9, exposure time: 3-4 hours	0.24	1.1	81.3
concentration: 198 (µM), S9 metabolic activation: without S9, exposure time: 24 hours	1.42	2.28	78.4
